Measured values taken from PubChem BioAssay (NCATS).
Values joined by “and” are separate entries in the source; they are usually repeats but may differ in a detail not shown here. Equal values may be shown once. The shares of active, inactive and inconclusive entries below differ from those in the screen. For some of these results: Potencies of inconclusive entries are left out as doubtful fits. For some of these results: A note “side channel” means that the fit belongs to a control or component signal, not to the main read-out. The source holds several records for some structures; these can differ, active in one and inactive in another. Active and inactive are the calls of the source. Unless noted, the call rests on the fitted dose curve; in most records, active means well fitted curve in the direction sought with a large enough effect; inconclusive means small, poorly fitted or top-dose-only effect, or another doubt; inactive means no such curve, though single readings can be large; an effect the other way counts as inactive or inconclusive.

How the values were obtained:
[1] = biological target: Glucocorticoid receptor (Homo sapiens) (UniProt P04150); test: qHTS assay for small molecule antagonists of glucocorticoid receptor signaling (AID 588533; active means well fitted inhibition curve with a large enough effect in the signal ratio, with a control signal flat, not every such curve was filed as active; inconclusive means small, poorly fitted or top-dose-only effect, or effect the other way, or a change in a side signal; the % refers to the signal ratio;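 further: cells stimulated with 2 nM dexamethasone as agonist; on the % scale 0 is the no-effect control and ±100 the full control effect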); settings: HeLa MMTV-bla, GRE beta-lactamase ratio, antagonist mode, 18 h
[2] = qHTS assay for small molecule agonists of the antioxidant response element (ARE) signaling pathway (AID 651741; active means well fitted activation curve with a large enough effect in the signal ratio; inconclusive means small, poorly fitted or top-dose-only effect, or effect the other way, or a change in a side signal; the % refers to the signal ratio; further: potency means the concentration at half of the fitted maximal effect; on activation: % of control where 0% means no effect); settings: HepG2 ARE-bla reporter, beta-lactamase FRET ratio, 16 h; activation: at 96 µM (top of the series) unless noted
Summary of the method: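 Quantitative HTS in HepG2 cells stably expressing an ARE-beta-lactamase reporter; 16 h compound exposure at 37 C, followed by 2 h room-temperature incubation with LiveBLAzer B/G FRET substrate and fluorescence measurement.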

[3] = qHTS assay for small molecule activators of the p53 signaling pathway (AID 651743; active means well fitted activation curve with a large enough effect in the signal ratio, not every such curve was filed as active; inconclusive means small, poorly fitted or top-dose-only effect, or a change in a side signal; the % refers to the signal ratio; further: potency means the concentration at half of the fitted maximal effect); settings: HCT-116 p53RE-bla, beta-lactamase FRET ratio, 16 h; activation: stronger effect = higher value
Summary of the method: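 Read-out is fluorescence intensity from the LiveBLAzer B/G FRET substrate, added for 2 hours at room temperature after HCT-116 p53RE-bla cells had been incubated with compounds for 16 hours at 37 C.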

[4] = biological target: Glucocorticoid receptor (Homo sapiens) (UniProt P04150); test: qHTS assay for small molecule agonists of glucocorticoid receptor signaling (AID 588532; active means well fitted curve in the direction sought with a large enough effect in the signal ratio, with a control signal flat; inconclusive means small, poorly fitted or top-dose-only effect, or a change in a side signal; inactive means no such curve, though single readings can be large or run the other way; the % refers to the signal ratio; further: potency means the concentration at half of the fitted maximal effect;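 on activation: 100% = dexamethasone at 0.1 µM and 0% = DMSO only wells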); settings: HeLa MMTV-bla, beta-lactamase ratio, agonist, 18 h; activation: stronger effect = higher value, percent of dexamethasone control, DMSO zero
Summary of the method: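 Quantitative HTS using CellSensor MMTV-bla HeLa cells in charcoal/dextran-treated serum; compounds tested up to 92 uM. After 18 h at 37 C, CCF4 dye reported reporter induction.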

[5] = biological target: Peroxisome proliferator-activated receptor delta (Homo sapiens) (UniProt Q03181); test: qHTS assay for small molecule agonists of peroxisome proliferator-activated receptor delta signaling (AID 588534; calls by dose curve; further: potency means the concentration at half of the fitted maximal effect); settings: HEK293T PPARdelta-UAS-bla, beta-lactamase ratio, 18 h; activation: at 76.7 µM (top of the series)
Summary of the method: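 Cells carrying a PPAR-delta beta-lactamase reporter were treated with compounds for 18 h at 37 °C in agonist mode. CCF4 fluorescence was read after 2 h; EC50 and efficacy from Hill fits.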

[6] = biological target: Peroxisome proliferator-activated receptor delta (Homo sapiens) (UniProt Q03181); test: qHTS assay for small molecule antagonists of peroxisome proliferator-activated receptor delta signaling (AID 588535; active means well fitted inhibition curve with a large enough effect in the signal ratio, with a control signal flat, not every such curve was filed as active; inconclusive means small, poorly fitted or top-dose-only effect, or effect the other way, or a change in a side signal; inactive means no such curve, though single readings can be large or run the other way; the % refers to the signal ratio; further: potency means the concentration at half of the fitted maximal effect); settings: HEK293T PPARd-UAS-bla, beta-lactamase FRET ratio, 18 h; activity change, negative = inhibition: at 76.7 µM (top of the series) unless noted
Summary of the method: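 HEK293T PPAR-delta-UAS-bla cells, 4000/well, 2% charcoal/dextran FBS; 5 h 37 C; cpd titration; 18 h 37 C; CCF4 2 h RT; FI 460/530 nm; Hill fit → IC50, efficacy.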

[7] = biological target: Peroxisome proliferator-activated receptor gamma (Homo sapiens) (UniProt P37231); test: qHTS assay for small molecule agonists of peroxisome proliferator-activated receptor gamma signaling (AID 588536; active means well fitted curve in the direction sought with a large enough effect in the signal ratio, with a control signal flat, not every such curve was filed as active; inconclusive means small, poorly fitted or top-dose-only effect, or effect the other way, or a change in a side signal; inactive means no such curve, though single readings can be large or run the other way; the % refers to the signal ratio; further: potency means the concentration at half of the fitted maximal effect;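 on activation: 0% = DMSO basal wells and 100% = rosiglitazone at 2 µM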); settings: HEK293 PPARg-UAS-bla, beta-lactamase ratio, 16 h; activation: at 76.7 µM (top of the series), percent of rosiglitazone response, DMSO as zero unless noted
Summary of the method: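 GeneBLAzer PPAR-gamma-UAS-bla HEK293 cells in 1% charcoal/dextran-treated FBS medium were treated 16 h at 37 C with compounds. Beta-lactamase activity was read by CCF4 ratio (460/530 nm). Response was normalized to 2 uM rosiglitazone (100%) and DMSO, then Hill-fitted for EC50 and efficacy.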

[8] = biological target: Vitamin D3 receptor (Homo sapiens) (UniProt P11473); test: qHTS assay for small molecule agonists of vitamin D receptor signaling (AID 588543; calls by dose curve; further: potency means the concentration at half of the fitted maximal effect); settings: HEK293T VDR-UAS-bla, beta-lactamase ratio, 16 h; activation: at 76.8 µM (top of the series)
Summary of the method: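 Agonist-mode beta-lactamase reporter: HEK293T VDR-UAS-bla cells in charcoal-stripped 2% FBS, compound series 16 h 37 C, CCF4 2 h RT. EC50 from Hill fit, scaled against DMSO and 50 nM calcitriol control.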

[9] = qHTS assay for small molecule agonists of the antioxidant response element (ARE) signaling pathway measured by Nrf2-dependant transcriptional activity - cell viability counter screen (AID 720653; active means well fitted curve in the direction sought with a large enough effect in the repeat runs; inconclusive means weak or mixed curves; inactive means no such curve, though single readings can be large; an effect the other way counts as inactive or inconclusive; further: potency means the concentration at half of the fitted maximal effect); settings: ARE-bla HepG2 viability, CellTiter-Glo ATP luminescence, 16 h; max response: stronger effect = lower value
Summary of the method: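 Cytotoxicity counter screen: intracellular ATP quantified by CellTiter-Glo luminescence in the same ARE-bla HepG2 plates, after 16 h compound exposure and a 2 h beta-lactamase substrate step.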

[10] = biological target: Thyroid hormone receptor beta (Homo sapiens) (UniProt P10828); test: qHTS assay for small molecule agonists of thyroid hormone receptor beta signaling (AID 588545; calls by dose curve; further: potency means the concentration at half of the fitted maximal effect;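 on activation: 0% = DMSO only and 100% = 10 nM T3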); settings: TR-UAS-bla GripTite HEK 293, beta-lactamase ratio, agonist mode, 18 h; activation: at 76.7 µM, percent of T3 response, DMSO as zero
Summary of the method: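 Compounds were tested as agonists in TR-UAS-bla-GripTite HEK 293 cells. After 18 hrs at 37 C, CCF4 substrate was added and fluorescence read after 2 hrs at room temperature.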

[11] = qHTS assay for small molecule agonists of the antioxidant response element (ARE) signaling pathway measured by Nrf2-dependant transcriptional activity (AID 720636; active means well fitted curve in the direction sought with a large enough effect in the repeat runs; inconclusive means weak or mixed curves; inactive means no such curve, though single readings can be large; an effect the other way counts as inactive or inconclusive; further: potency means the concentration at half of the fitted maximal effect;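 on activation: HepG2 cells with an ARE-driven luciferase reporter; % of control where 0% means no effect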)
Summary of the method: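 Attachment 6 hr at 37 C, then compound versus DMSO vehicle for 16 hr in ARE-luc HepG2 cells (1% dialyzed FBS); luminescence recorded 30 min after ONE-Glo addition at room temperature.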

[12] = Cell Viability - LYMP2-004 (AID 966); settings: LYMP2-004 lymphoblastoid cell viability, qHTS; activity change, negative = cytotoxicity: at 92.2 µM (top of the series); further: nearly all actives have a fitted effect of over 65% in size; further: potency means the concentration at half of the fitted maximal effect;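 on activity change, negative = cytotoxicity: plate controls were DMSO only for no effect and tetraoctylammonium bromide control for full effect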
Summary of the method: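 Lymphoblastoid LYMP2-004 cells, 2500 per well, were preincubated for 5 hr and then treated with compound for 24 h at 37 C in complete medium. Viability was read as cellular ATP by CellTiter-Glo luminescence, and AC50 values were taken from Hill fits to concentration-response data.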

[13] = Cell Viability - LYMP2-021 (AID 974);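 further: compound exposure lasts 24 hours at 37 °C; on the % scale 0 is the no-effect control and ±100 the full control effect; nearly all actives have a fitted effect of over 55% in size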
Summary of the method: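 Human lymphoblastoid LYMP2-021 cells, 2500/well in complete medium, treated 24 hours at 37 C. Intracellular ATP by CellTiter-Glo luminescence (30 min, RT); AC50 from Hill fits of concentration-response.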

[14] = biological target: Thyroid hormone receptor beta (Homo sapiens) (UniProt P10828); test: qHTS assay for small molecule antagonists of thyroid hormone receptor beta signaling (AID 588547; active means well fitted inhibition curve with a large enough effect in the signal ratio, with a control signal flat, not every such curve was filed as active; inconclusive means small, poorly fitted or top-dose-only effect, or effect the other way, or a change in a side signal; the % refers to the signal ratio;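 further: cells stimulated with 0.4 nM T3 agonist during compound exposure; on the % scale 0 is the no-effect control and ±100 the full control effect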); settings: TR-UAS-bla HEK293, beta-lactamase ratio, antagonist mode, 18 h
Summary of the method: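 Inhibition of T3-driven (0.4nM final) beta-lactamase reporter activity was measured over 0.59 nM to 92 uM compound after 18 h at 37 C. The cells were GripTite HEK293 TR-UAS-bla in charcoal/dextran-stripped serum, with CCF4 ratio read-out and IC50 from Hill fits.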

[15] = qHTS assay to identify small molecules that stimulate interleukin-8 (IL-8) secretion (AID 651758; active means well fitted activation curve with a large enough effect in the signal ratio; inconclusive means small, poorly fitted or top-dose-only effect, or effect the other way, or a change in a side signal; the % refers to the signal ratio; further: 0% is about no effect); settings: HTRF ratio (665/615); activation: at 92.2 µM (top of the series)
Summary of the method: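 Secreted IL-8 measured by TR-FRET sandwich (cryptate and XL665 antibodies) from THP-1 cells exposed to compound overnight (16 hrs, 37 C).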

[16] = qHTS assay for small molecule antagonists of the retinoid-related orphan receptor gamma (ROR-gamma) signaling pathway - cell viability counter screen (AID 720652; active means well fitted curve in the direction sought with a large enough effect in the repeat runs; inconclusive means weak or mixed curves; inactive means no such curve, though single readings can be large; an effect the other way counts as inactive or inconclusive;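 further: compound exposure lasted 16 hr before ATP read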; further: potency means the concentration at half of the fitted maximal effect;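 on activity change, negative = cytotoxicity: CHO reporter cells with doxycycline-induced ROR-gamma expression; on the % scale 0 is the no-effect control and ±100 the full control effect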)
Summary of the method: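 CHO cells carrying TET-inducible ROR and RORE-luciferase reporter, plated 5 hr, then dosed with compound plus doxycycline. After 16 hr at 37 C, viability read as intracellular ATP by CellTiter-Glo luminescence.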

[17] = biological target: Cytochrome P450 3A4 (Homo sapiens) (UniProt P08684); test: qHTS Assay for Inhibitors and Substrates of Cytochrome P450 3A4 (AID 884); further: on the % scale 0 is the no-effect control and ±100 the full control effect; nearly all actives have a fitted effect of over 50% in size
Summary of the method: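 20 nM human CYP3A4 with 25 uM Luciferin-PPXE (at KM) in 200 mM KPO4, preincubated 10 min with compound; NADPH regeneration started a 60 min RT reaction. Luciferin detected by luminescence, normalized to 57 uM ketoconazole as full inhibition.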

[18] = Cell Viability - LYMP2-024 (AID 988); further: potency means the concentration at half of the fitted maximal effect; nearly all actives have a fitted effect of over 60% in size
Summary of the method: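 Human lymphoblastoid LYMP2-024 cells (2500/well) rested 5 hr, then treated with compound for 24 hr at 37 C in complete medium. Viability was measured as intracellular ATP by CellTiter-Glo luminescence. AC50 values came from Hill-equation fits.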

[19] = biological target: Peroxisome proliferator-activated receptor gamma (Homo sapiens) (UniProt P37231); test: qHTS assay for small molecule antagonists of peroxisome proliferator-activated receptor gamma signaling (AID 588537; active means well fitted inhibition curve with a large enough effect in the signal ratio, with a control signal flat, not every such curve was filed as active; inconclusive means small, poorly fitted or top-dose-only effect, or effect the other way, or a change in a side signal; the % refers to the signal ratio;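 further: reporter cells co-stimulated with 50 nM rosiglitazone agonist during compound treatment; % of control where 0% means no effect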); settings: HEK293 PPARg-UAS-bla, beta-lactamase ratio, antagonist mode; activity, negative = inhibition: at 76.8 µM (top of the series)
Summary of the method: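 Antagonist mode, beta-lactamase reporter in HEK293; charcoal/dextran FBS 1%; 3000 cells/well, 37 C 6-6.5 h; cpd titration + rosiglitazone 50 nM final, 16 h 37 C; CCF4, 2 h RT; 460/530 nm; Hill fit → IC50, efficacy.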

[20] = Cell Viability - LYMP2-001 (AID 921); settings: LYMP2-001 lymphoblastoid cell viability; activity change, negative = cytotoxic: at 92.2 µM (top of the series);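 further: 0% = DMSO only and full inhibition = tetraoctylammonium bromide control wells; nearly all actives have a fitted effect of over 70% in size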
Summary of the method: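 Cellular ATP loss read by luciferase luminescence after 24 h compound exposure at 37 C in complete medium. LYMP2-001 lymphoblastoid cells, 2500/well; qHTS concentration-response data fitted with Hill equation for AC50.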

[21] = MultiTox-Fluor Cytotoxicity Assay - LYMP1-001 - Dead Cells (AID 946);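 further: 0% = DMSO and 100% = tetraoctylammonium bromide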
Summary of the method: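 LYMP1-001 lymphoblastoid cells (2500/well) treated 16 h at 37 C. Dead-cell protease cleavage of bis-AAF-R110 read at Ex/Em 485/520. Normalized to DMSO and 15 uM tetraoctylammonium bromide; AC50 from Hill fits.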

[22] = MultiTox-Fluor Cytotoxicity Assay - LYMP1-001 - Live Cells (AID 947); further: potency means the concentration at half of the fitted maximal effect
[23] = qHTS assay for small molecule disruptors of the mitochondrial membrane potential - 5 hr assay (AID 651755; calls by dose curve; further: on the % scale 0 is the no-effect control and ±100 the full control effect; nearly all actives have a fitted effect of over 40% in size); settings: JC-1-type ratio dye; ratio change, negative = disruption: at 92.2 µM (top of the series)
Summary of the method: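 HepG2, 2,000 cells/well, overnight attach; cpd or DMSO 5 hr, 37C/5% CO2; Mito-MPS 30 min 37C; fluor 490/535 + 540/590 nm.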

[24] = biological target: Retinoic acid receptor RXR-alpha (Homo sapiens) (UniProt P19793); test: qHTS assay for small molecule agonists of retinoid X receptor alpha signaling (AID 588544; calls by dose curve;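 further: 0% = DMSO basal wells and 100% = reference agonist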); settings: HEK293T RXRa-UAS-bla, beta-lactamase reporter, 18 h; activation: at 76.7 µM (top of the series) unless noted
[25] = activity change, negative = inhibition: at 76.8 µM (top of the series) unless noted
Tags describe the fitted curve by direction and shape or compound fluorescence and quenching.

Chain of UniProt Q03181 (Q03181 whole entry, looked up): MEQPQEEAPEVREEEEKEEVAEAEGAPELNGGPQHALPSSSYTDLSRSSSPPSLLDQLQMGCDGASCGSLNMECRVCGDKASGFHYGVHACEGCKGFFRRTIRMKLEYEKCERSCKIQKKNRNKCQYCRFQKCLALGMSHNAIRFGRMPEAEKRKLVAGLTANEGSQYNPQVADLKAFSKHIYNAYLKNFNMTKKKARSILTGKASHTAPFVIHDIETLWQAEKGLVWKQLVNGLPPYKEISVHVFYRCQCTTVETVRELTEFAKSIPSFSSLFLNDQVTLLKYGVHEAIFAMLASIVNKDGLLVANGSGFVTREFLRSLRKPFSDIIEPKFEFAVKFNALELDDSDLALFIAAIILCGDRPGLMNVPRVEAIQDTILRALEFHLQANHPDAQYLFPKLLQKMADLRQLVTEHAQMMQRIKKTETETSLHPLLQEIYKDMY
Chain of UniProt P10828 (P10828 whole entry, looked up): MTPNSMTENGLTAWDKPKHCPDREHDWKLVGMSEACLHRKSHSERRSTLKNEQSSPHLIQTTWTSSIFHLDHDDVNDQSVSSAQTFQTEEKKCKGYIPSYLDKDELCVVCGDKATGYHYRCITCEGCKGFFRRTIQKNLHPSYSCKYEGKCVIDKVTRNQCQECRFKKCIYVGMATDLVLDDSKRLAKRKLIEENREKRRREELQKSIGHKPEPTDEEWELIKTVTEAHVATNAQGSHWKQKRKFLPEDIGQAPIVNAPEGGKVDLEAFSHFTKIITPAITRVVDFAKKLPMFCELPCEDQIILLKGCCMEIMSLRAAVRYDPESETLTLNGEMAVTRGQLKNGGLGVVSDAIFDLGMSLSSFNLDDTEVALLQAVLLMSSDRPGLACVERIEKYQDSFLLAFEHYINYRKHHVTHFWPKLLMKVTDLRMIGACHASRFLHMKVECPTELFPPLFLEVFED
Chain of UniProt P08684 (P08684 whole entry, looked up): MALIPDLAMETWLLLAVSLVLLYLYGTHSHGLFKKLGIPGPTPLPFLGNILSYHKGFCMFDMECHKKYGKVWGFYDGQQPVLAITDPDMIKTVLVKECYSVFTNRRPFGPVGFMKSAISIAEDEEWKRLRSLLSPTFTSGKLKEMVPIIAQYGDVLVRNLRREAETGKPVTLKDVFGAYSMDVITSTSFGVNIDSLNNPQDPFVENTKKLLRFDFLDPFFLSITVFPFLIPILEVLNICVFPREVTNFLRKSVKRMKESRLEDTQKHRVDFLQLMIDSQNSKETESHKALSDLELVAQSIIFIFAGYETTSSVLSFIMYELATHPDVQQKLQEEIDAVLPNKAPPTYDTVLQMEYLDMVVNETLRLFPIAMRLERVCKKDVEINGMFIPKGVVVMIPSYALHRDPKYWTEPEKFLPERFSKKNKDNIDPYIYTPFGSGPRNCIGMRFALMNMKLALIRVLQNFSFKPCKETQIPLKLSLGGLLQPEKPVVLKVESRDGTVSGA
Chain of UniProt P19793 (P19793 whole entry, looked up): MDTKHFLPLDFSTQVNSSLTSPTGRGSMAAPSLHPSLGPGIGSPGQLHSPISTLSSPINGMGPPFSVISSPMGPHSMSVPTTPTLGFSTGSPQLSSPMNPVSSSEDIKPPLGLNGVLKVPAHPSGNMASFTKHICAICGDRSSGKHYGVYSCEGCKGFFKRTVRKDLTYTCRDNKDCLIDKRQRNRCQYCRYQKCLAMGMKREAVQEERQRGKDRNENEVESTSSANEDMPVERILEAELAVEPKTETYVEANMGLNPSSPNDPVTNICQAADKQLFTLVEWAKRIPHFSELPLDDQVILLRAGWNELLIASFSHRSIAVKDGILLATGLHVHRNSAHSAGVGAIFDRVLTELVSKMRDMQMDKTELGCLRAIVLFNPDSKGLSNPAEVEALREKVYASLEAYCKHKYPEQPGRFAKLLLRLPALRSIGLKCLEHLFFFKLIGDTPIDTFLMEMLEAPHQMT

With `CCC(C)c1ccc(O)cc1` (stereo unspecified) the activity change, negative = inhibition [1, 25] was inconclusive: 1.03%, the Potency [2] was inconclusive [activator, partial curve] and the Potency [3] was inconclusive [side channel, falling, single point].
With `C#CCOC(=O)[C@@H](C)Oc1ccc(Oc2ncc(Cl)cc2F)cc1` the Potency [4] was inconclusive [side channel, rising, full curve, poor fit] and the Potency [2] was inconclusive [inhibitor, partial curve, poor fit].
For `Cc1nn(C)c(Oc2ccccc2)c1/C=N/OCc1ccc(C(=O)OC(C)(C)C)cc1`, the Potency [5] was inconclusive [side channel, rising, full curve, poor fit], the Potency [6] was inconclusive [fluorescent, side channel, full curve] and the Potency [7] was inconclusive [inhibitor, partial curve, poor fit]. The Potency [8] was inconclusive [side channel, rising, full curve] and the Potency [9] was inconclusive [cytotoxic, full curve, poor fit].
With `CNC(=O)O/N=C(\C)SC` the Potency [1, 25] was “inactive”, the activation [7] was inconclusive: 10% and the activation [10] was inactive: 0%. For the same compound, the Potency [11] was “inactive”.
For `c1ccc(NNc2ccccc2)cc1`, the Potency [12] was inconclusive [rising, partial curve, poor fit], the Potency [13] was “inactive” and the activity change, negative = inhibition [1, 25] was inconclusive: 3.45%. The activity change, negative = inhibition ([1]; at 76.8 µM (top of the series)) was inactive: -0.355%, the activity change % (negative = inhibition) [14] was inconclusive: 6.96% and the Potency [2] was inconclusive [activator, partial curve, poor fit]. For the same compound, the Potency [15] was “inactive”, the Potency [11] was inconclusive [activator, partial curve, poor fit] and the Potency [16] was “inactive”.
In the case of `C=CC1CC=CCC1` (stereo unspecified), the Potency [17] is reported as “inactive”, the Potency [12] is reported as “inactive” and the Potency [18] is reported as inconclusive [cytotoxic, partial curve, poor fit]. For the same compound, the activity change, negative = inhibition [1, 25] was inconclusive: -9.25%, the activity, negative = inhibition [19] was inconclusive: 9.85% and the activation [15] was inconclusive: -18.6%. For the same compound, the Potency [16] was inconclusive [rising, partial curve, poor fit].
For `C=C(Cl)Cl`, the activity change, negative = inhibition [1, 25] was inconclusive: 19.7% and the Potency [15] was “inactive”.
With `c1ccc(-c2ccccc2)cc1` the activity change, negative = cytotoxic [20] was inconclusive: -30.1% [cytotoxic], the Potency [21] was “inactive” and the Potency [22] was inconclusive [cytotoxic, partial curve, poor fit]. For the same compound, the activation [4] was inactive: -0.478% and inactive: -3.49%, the activity change % (negative = inhibition) [14] was inactive: -3.07% and inactive: -0.354% and the Potency [2] was “inactive and active: 54.5 µM”. For the same compound, the Potency [23] was “inactive” and the Potency [15] was “inactive”.
For `CC1=NNC(=O)N(/N=C/c2cccnc2)C1`, the activity change, negative = inhibition [6] was inconclusive: 21.3%, the Potency [10] was inconclusive [side channel, falling, full curve, poor fit] and the Potency [2] was “inactive”.
For `CNC(=O)N(C)c1nnc(C(C)(C)C)s1`, the Potency [6] was “inactive”, the Potency [24] was “inactive” and the Potency [11] was inconclusive [activator, partial curve, poor fit].
